Measured values published in the supplement of paper PMC9151546.
Most values come without repeats; read them as rough.

Experiments:
[1] = system: CHO-K1; assay: micronucleus frequency (% of nucleated events); higher = more micronuclei (genotoxic)
[2] = system: CHO-K1; assay: hypodiploid nuclei frequency (% of nucleated events); higher = more hypodiploid events (aneugenic)
Method: (§1)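 Flow-cytometric in vitro micronucleus assay (Litron MicroFlow) in CHO-K1 cells in 96-well plates, 19 concentrations (4.5-200 µM, n=1 per concentration). Without S9, cells were exposed for 24 h and sampled at 48 h. With Aroclor 1254-induced rat liver S9, cells were exposed for 3-4 h and sampled at 27-28 h. Read-outs are %MN and %hypodiploid nuclei relative to nucleated events, and relative survival as the nuclei-to-bead ratio versus the 1% DMSO vehicle control (x100).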

[3] = system: CHO-K1; assay: relative survival (nuclei to bead ratio vs DMSO control) (% of vehicle control); higher = more surviving cells
Method: as §1
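For hypodiploid nuclei frequency (% of nucleated events) in this document: hypodiploid nuclei gated on a flow cytometer with 488 nm excitation after SYTOX Green staining, cultures at 37 °C, positive controls vinblastine without S9 and cyclophosphamide with S9.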
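For micronucleus frequency (% of nucleated events) in this document: cells lysed with nuclei stained by SYTOX Green, then micronucleus-gated events counted against nucleated events by flow cytometry with 488 nm excitation.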
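For relative survival (nuclei to bead ratio vs DMSO control) in this document: Lysed-cell nuclei stained with SYTOX Green and counted against counting beads by flow cytometry at 488 nm excitation, with vinblastine (no S9) and cyclophosphamide (plus S9) as positive controls.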

C=CCc1ccc(O)c(OC)c1 [Eugenol]
Conditions | hypodiploid nuclei frequency, [2] [%] | micronucleus frequency, [1] [%] | relative survival, [3]
concentration: 4.5 (µM), S9 metabolic activation: with S9, exposure time: 3-4 hours | 0.26 | 1.56 | 99.6
concentration: 4.5 (µM), S9 metabolic activation: without S9, exposure time: 24 hours | 0.6 | 3.06 | 98.8
concentration: 5.63 (µM), S9 metabolic activation: with S9, exposure time: 3-4 hours | 0.26 | 1.42 | 108
concentration: 5.63 (µM), S9 metabolic activation: without S9, exposure time: 24 hours | 0.46 | 2.64 | 111
concentration: 7.04 (µM), S9 metabolic activation: with S9, exposure time: 3-4 hours | 0.14 | 1.08 | 121
concentration: 7.04 (µM), S9 metabolic activation: without S9, exposure time: 24 hours | 0.5 | 2.5 | 99.8
concentration: 8.8 (µM), S9 metabolic activation: with S9, exposure time: 3-4 hours | 0.22 | 1.32 | 141
concentration: 8.8 (µM), S9 metabolic activation: without S9, exposure time: 24 hours | 0.26 | 1.96 | 97.9
concentration: 11 (µM), S9 metabolic activation: with S9, exposure time: 3-4 hours | 0.18 | 1.04 | 111
concentration: 11 (µM), S9 metabolic activation: without S9, exposure time: 24 hours | 0.62 | 2.7 | 96.1
concentration: 13.7 (µM), S9 metabolic activation: with S9, exposure time: 3-4 hours | 0.1 | 1.08 | 106
concentration: 13.7 (µM), S9 metabolic activation: without S9, exposure time: 24 hours | 0.3 | 1.88 | 90.7
concentration: 17.2 (µM), S9 metabolic activation: with S9, exposure time: 3-4 hours | 0.32 | 2.2 | 109
concentration: 17.2 (µM), S9 metabolic activation: without S9, exposure time: 24 hours | 0.42 | 1.9 | 78.2
concentration: 21.5 (µM), S9 metabolic activation: with S9, exposure time: 3-4 hours | 0.28 | 1.72 | 132
concentration: 21.5 (µM), S9 metabolic activation: without S9, exposure time: 24 hours | 0.36 | 1.92 | 82.2
concentration: 26.8 (µM), S9 metabolic activation: with S9, exposure time: 3-4 hours | 0.26 | 1.52 | 76.3
concentration: 26.8 (µM), S9 metabolic activation: without S9, exposure time: 24 hours | 0.36 | 1.24 | 84.2
concentration: 33.6 (µM), S9 metabolic activation: with S9, exposure time: 3-4 hours | 0.2 | 1.42 | 99.9
concentration: 33.6 (µM), S9 metabolic activation: without S9, exposure time: 24 hours | 0.46 | 1.56 | 84.5
concentration: 41.9 (µM), S9 metabolic activation: with S9, exposure time: 3-4 hours | 0.12 | 0.98 | 58.8
concentration: 41.9 (µM), S9 metabolic activation: without S9, exposure time: 24 hours | 0.54 | 1.84 | 61.8
concentration: 52.4 (µM), S9 metabolic activation: with S9, exposure time: 3-4 hours | 0.42 | 1.83 | 48.1
concentration: 52.4 (µM), S9 metabolic activation: without S9, exposure time: 24 hours | 0.64 | 2.16 | 82.8
concentration: 65.5 (µM), S9 metabolic activation: with S9, exposure time: 3-4 hours | – | – | 33.1
concentration: 65.5 (µM), S9 metabolic activation: without S9, exposure time: 24 hours | 0.6 | 2.48 | 73.3
concentration: 81.9 (µM), S9 metabolic activation: with S9, exposure time: 3-4 hours | – | – | 18.5
concentration: 81.9 (µM), S9 metabolic activation: without S9, exposure time: 24 hours | 0.68 | 2.44 | 72.8
concentration: 102 (µM), S9 metabolic activation: with S9, exposure time: 3-4 hours | – | – | 18.7
concentration: 102 (µM), S9 metabolic activation: without S9, exposure time: 24 hours | 0.6 | 3.06 | 74
concentration: 128 (µM), S9 metabolic activation: with S9, exposure time: 3-4 hours | – | – | 6.23
concentration: 128 (µM), S9 metabolic activation: without S9, exposure time: 24 hours | 1.08 | 3.52 | 59.4
concentration: 160 (µM), S9 metabolic activation: with S9, exposure time: 3-4 hours | – | – | 2.9
concentration: 160 (µM), S9 metabolic activation: without S9, exposure time: 24 hours | 0.9 | 2.82 | 96.6
concentration: 200 (µM), S9 metabolic activation: with S9, exposure time: 3-4 hours | – | – | 0.59
concentration: 200 (µM), S9 metabolic activation: without S9, exposure time: 24 hours | 1.48 | 4.5 | 79.7

Nc1nc(=O)c2nc(CNc3ccc(C(=O)N[C@@H](CCC(=O)O)C(=O)O)cc3)cnc2[nH]1 [Folic acid]
Conditions | hypodiploid nuclei frequency, [2] [%] | micronucleus frequency, [1] [%] | relative survival, [3]
concentration: 4.5 (µM), S9 metabolic activation: with S9, exposure time: 3-4 hours | 0.2 | 1.36 | 124
concentration: 4.5 (µM), S9 metabolic activation: without S9, exposure time: 24 hours | 0.82 | 3.1 | 107
concentration: 5.63 (µM), S9 metabolic activation: with S9, exposure time: 3-4 hours | 0.02 | 1.12 | 98.8
concentration: 5.63 (µM), S9 metabolic activation: without S9, exposure time: 24 hours | 0.44 | 1.86 | 107
concentration: 7.04 (µM), S9 metabolic activation: with S9, exposure time: 3-4 hours | 0.2 | 0.96 | 102
concentration: 7.04 (µM), S9 metabolic activation: without S9, exposure time: 24 hours | 0.44 | 2.28 | 90.8
concentration: 8.8 (µM), S9 metabolic activation: with S9, exposure time: 3-4 hours | 0.14 | 1.24 | 88.9
concentration: 8.8 (µM), S9 metabolic activation: without S9, exposure time: 24 hours | 0.74 | 2.82 | 110
concentration: 11 (µM), S9 metabolic activation: with S9, exposure time: 3-4 hours | 0.14 | 1.12 | 101
concentration: 11 (µM), S9 metabolic activation: without S9, exposure time: 24 hours | 0.6 | 1.76 | 127
concentration: 13.7 (µM), S9 metabolic activation: with S9, exposure time: 3-4 hours | 0.26 | 1.12 | 120
concentration: 13.7 (µM), S9 metabolic activation: without S9, exposure time: 24 hours | 0.64 | 3.02 | 104
concentration: 17.2 (µM), S9 metabolic activation: with S9, exposure time: 3-4 hours | 0.14 | 0.72 | 113
concentration: 17.2 (µM), S9 metabolic activation: without S9, exposure time: 24 hours | 0.6 | 2.44 | 147
concentration: 21.5 (µM), S9 metabolic activation: with S9, exposure time: 3-4 hours | 0.24 | 1.04 | 115
concentration: 21.5 (µM), S9 metabolic activation: without S9, exposure time: 24 hours | 0.64 | 1.62 | 93
concentration: 26.8 (µM), S9 metabolic activation: with S9, exposure time: 3-4 hours | 0.2 | 1.12 | 131
concentration: 26.8 (µM), S9 metabolic activation: without S9, exposure time: 24 hours | 0.68 | 2.48 | 104
concentration: 33.6 (µM), S9 metabolic activation: with S9, exposure time: 3-4 hours | 0.16 | 1.46 | 109
concentration: 33.6 (µM), S9 metabolic activation: without S9, exposure time: 24 hours | 0.6 | 2.24 | 104
concentration: 41.9 (µM), S9 metabolic activation: with S9, exposure time: 3-4 hours | 0.12 | 1.58 | 114
concentration: 41.9 (µM), S9 metabolic activation: without S9, exposure time: 24 hours | 0.8 | 2.04 | 105
concentration: 52.4 (µM), S9 metabolic activation: with S9, exposure time: 3-4 hours | 0.1 | 1.14 | 118
concentration: 52.4 (µM), S9 metabolic activation: without S9, exposure time: 24 hours | 0.78 | 1.94 | 152
concentration: 65.5 (µM), S9 metabolic activation: with S9, exposure time: 3-4 hours | 0.12 | 1.6 | 91.8
concentration: 65.5 (µM), S9 metabolic activation: without S9, exposure time: 24 hours | 0.76 | 2.06 | 113
concentration: 81.9 (µM), S9 metabolic activation: with S9, exposure time: 3-4 hours | 0.1 | 1.26 | 94.6
concentration: 81.9 (µM), S9 metabolic activation: without S9, exposure time: 24 hours | 0.84 | 2.2 | 98.6
concentration: 102 (µM), S9 metabolic activation: with S9, exposure time: 3-4 hours | 0.28 | 1.58 | 94.9
concentration: 102 (µM), S9 metabolic activation: without S9, exposure time: 24 hours | 0.88 | 1.5 | 115
concentration: 128 (µM), S9 metabolic activation: with S9, exposure time: 3-4 hours | 0.48 | 2.98 | 136
concentration: 128 (µM), S9 metabolic activation: without S9, exposure time: 24 hours | 1.08 | 1.78 | 108
concentration: 160 (µM), S9 metabolic activation: with S9, exposure time: 3-4 hours | 0.34 | 1.76 | 102
concentration: 160 (µM), S9 metabolic activation: without S9, exposure time: 24 hours | 1.16 | 1.84 | 122
concentration: 200 (µM), S9 metabolic activation: with S9, exposure time: 3-4 hours | 0.1 | 1.76 | 97.4
concentration: 200 (µM), S9 metabolic activation: without S9, exposure time: 24 hours | 1.46 | 2.4 | 81.5
